Test results from the supplement of paper PMC8728848.
Many of the other results were omitted from the sample, so the strongest signals are more common in it than they were.

How the values were obtained:
Assay in all cases: glycan array binding signal (z-score within array); higher = stronger binding
Conditions in all cases: glycan notation: IUPAC condensed, linker removed
[1] = tested on: Fuc(a1-2)Gal(b1-4)GlcNAc(b1-2)[Fuc(a1-2)Gal(b1-4)GlcNAc(b1-4)]Man(a1-3)[Fuc(a1-2)Gal(b1-4)GlcNAc(b1-2)Man(a1-6)]Man(b1-4)GlcNAc(b1-4)GlcNAc
[2] = tested on: Fuc(a1-2)Gal(b1-4)GlcNAc6S
[3] = tested on: Fuc(a1-2)Gal6S(b1-3)GlcNAc6S
[4] = tested on: Fuc(a1-2)[Gal(a1-3)]Gal(b1-3)GlcNAc(b1-2)Man(a1-3)[Fuc(a1-2)[Gal(a1-3)]Gal(b1-3)GlcNAc(b1-2)Man(a1-6)]Man(b1-4)GlcNAc(b1-4)[Fuc(a1-6)]GlcNAc
[5] = tested on: Fuc(a1-2)[Gal(a1-3)]Gal(b1-4)GlcNAc(b1-6)GalNAc
[6] = tested on: Fuc(a1-2)[Gal(a1-3)]Gal(b1-4)Glc
Fuc(a1-2)[Gal(a1-3)]Gal = tested on: Fuc(a1-2)[Gal(a1-3)]Gal
[7] = tested on: Fuc(a1-2)[GalNAc(a1-3)]Gal(b1-3)GlcNAc(b1-6)GalNAc
[8] = tested on: Fuc(a1-2)[GalNAc(a1-3)]Gal(b1-3)GlcNAc
[9] = tested on: Fuc(a1-2)[GalNAc(a1-3)]Gal(b1-4)GlcNAc(b1-2)Man(a1-3)[Fuc(a1-2)[GalNAc(a1-3)]Gal(b1-4)GlcNAc(b1-2)Man(a1-6)]Man(b1-4)GlcNAc(b1-4)GlcNAc
[10] = tested on: Fuc(a1-2)[GalNAc(a1-3)]Gal(b1-4)[Fuc(a1-3)]GlcNAc(b1-3)GalNAc
[11] = tested on: Fuc(a1-2)[GalNAc(a1-3)]Gal
Gal(a1-2)Gal = tested on: Gal(a1-2)Gal
[12] = tested on: Gal(a1-3)Gal(b1-4)GlcNAc(b1-2)Man
Gal(a1-3)Gal = tested on: Gal(a1-3)Gal
[13] = tested on: Gal(b1-3)GlcNAc(b1-3)Gal(b1-4)GlcNAc(b1-3)Gal(b1-4)GlcNAc(b1-2)[Gal(b1-3)GlcNAc(b1-3)Gal(b1-4)GlcNAc(b1-3)Gal(b1-4)GlcNAc(b1-6)]Man(a1-6)[Gal(b1-3)GlcNAc(b1-3)Gal(b1-4)GlcNAc(b1-3)Gal(b1-4)GlcNAc(b1-2)Man(a1-3)]Man(b1-4)GlcNAc(b1-4)[Fuc(a1-6)]GlcNAc
[14] = tested on: Gal(b1-3)[Fuc(a1-4)]GlcNAc(b1-6)GalNAc
[15] = tested on: Gal(b1-3)[Neu5Ac(a2-6)]GalNAc
[16] = tested on: Gal(b1-4)GlcNAc(b1-3)Gal(b1-4)GlcNAc(b1-2)Man(a1-3)[Gal(b1-4)GlcNAc(b1-3)Gal(b1-4)GlcNAc(b1-2)Man(a1-6)]Man(b1-4)GlcNAc(b1-4)GlcNAc
[17] = tested on: Gal(b1-4)GlcNAc(b1-3)Gal(b1-4)GlcNAc(b1-3)Gal(b1-4)GlcNAc(b1-2)[Gal(b1-4)GlcNAc(b1-3)Gal(b1-4)GlcNAc(b1-3)Gal(b1-4)GlcNAc(b1-6)]Man(a1-6)[Gal(b1-4)GlcNAc(b1-3)Gal(b1-4)GlcNAc(b1-3)Gal(b1-4)GlcNAc(b1-2)Man(a1-3)]Man(b1-4)GlcNAc(b1-4)[Fuc(a1-6)]GlcNAc
[18] = tested on: Gal(b1-4)GlcNAc(b1-3)Gal(b1-4)GlcNAc(b1-3)Gal(b1-4)GlcNAc(b1-3)Gal(b1-4)GlcNAc(b1-2)Man(a1-3)[Gal(b1-4)GlcNAc(b1-3)Gal(b1-4)GlcNAc(b1-3)Gal(b1-4)GlcNAc(b1-3)Gal(b1-4)GlcNAc(b1-2)Man(a1-6)]Man(b1-4)GlcNAc(b1-4)GlcNAc
[19] = tested on: Gal(b1-4)GlcNAc(b1-6)Gal(b1-4)GlcNAc(b1-6)GalNAc
[20] = tested on: Gal(b1-4)GlcNAc(b1-6)[Gal(b1-4)GlcNAc(b1-3)]GalNAc
Gal3S(b1-3)GlcNAc = tested on: Gal3S(b1-3)GlcNAc
Gal3S(b1-4)Glc6S = tested on: Gal3S(b1-4)Glc6S
Gal6S(b1-3)GlcNAc6S = tested on: Gal6S(b1-3)GlcNAc6S
Gal6S(b1-4)Glc6S = tested on: Gal6S(b1-4)Glc6S
Gal6S(b1-4)GlcNAc6S = tested on: Gal6S(b1-4)GlcNAc6S
Gal6S(b1-4)GlcNAc = tested on: Gal6S(b1-4)GlcNAc
GalNAc(b1-3)GalNAc = tested on: GalNAc(b1-3)GalNAc
Glc(b1-4)Glc = tested on: Glc(b1-4)Glc
[21] = tested on: GlcNAc(a1-4)Gal(b1-4)GlcNAc(b1-3)Gal(b1-4)GlcNAc(b1-3)Gal(b1-4)GlcNAc
[22] = tested on: GlcNAc(b1-2)[GlcNAc(b1-4)]Man(a1-3)[GlcNAc(b1-4)][GlcNAc(b1-2)[GlcNAc(b1-6)]Man(a1-6)]Man(b1-4)GlcNAc(b1-4)GlcNAc
[23] = tested on: GlcNAc(b1-3)Gal(b1-4)GlcNAc(b1-6)[GlcNAc(b1-3)]Gal(b1-4)GlcNAc
GlcNAc(b1-3)Gal(b1-4)Glc = tested on: GlcNAc(b1-3)Gal(b1-4)Glc
[24] = tested on: Man(a1-2)Man(a1-2)Man(a1-6)[Man(a1-3)]Man
[25] = tested on: Man(a1-2)Man(a1-3)[Man(a1-2)Man(a1-6)]Man(a1-6)[Man(a1-2)Man(a1-2)Man(a1-3)]Man(b1-4)GlcNAc(b1-4)GlcNAc
[26] = tested on: Man(a1-2)Man(a1-3)[Man(a1-2)Man(a1-6)]Man(a1-6)[Man(a1-2)Man(a1-2)Man(a1-3)]Man
[27] = tested on: Man(a1-2)Man(a1-6)[Man(a1-3)]Man(a1-6)[Man(a1-2)Man(a1-2)Man(a1-3)]Man
[28] = tested on: Neu5Ac(a2-3)Gal(b1-3)GlcNAc(b1-2)Man(a1-3)[Neu5Ac(a2-3)Gal(b1-3)GlcNAc(b1-2)Man(a1-6)]Man(b1-4)GlcNAc(b1-4)GlcNAc
[29] = tested on: Neu5Ac(a2-3)Gal(b1-4)GlcNAc(b1-2)Man(a1-3)[Neu5Ac(a2-3)Gal(b1-4)GlcNAc(b1-2)Man(a1-6)]Man(b1-4)GlcNAc(b1-4)[Fuc(a1-6)]GlcNAc
[30] = tested on: Neu5Ac(a2-3)Gal(b1-4)GlcNAc(b1-2)Man(a1-3)[Neu5Ac(a2-6)Gal(b1-4)GlcNAc(b1-2)Man(a1-6)]Man(b1-4)GlcNAc(b1-4)GlcNAc
[31] = tested on: Neu5Ac(a2-3)Gal(b1-4)GlcNAc(b1-3)Gal(b1-4)GlcNAc(b1-3)Gal(b1-4)GlcNAc
[32] = tested on: Neu5Ac(a2-6)Gal(b1-4)GlcNAc(b1-2)Man(a1-3)[Neu5Ac(a2-6)Gal(b1-4)GlcNAc(b1-2)Man(a1-6)]Man(b1-4)GlcNAc(b1-4)[Fuc(a1-6)]GlcNAc
[33] = tested on: Neu5Ac(a2-6)Gal(b1-4)GlcNAc(b1-2)Man(a1-6)[Man(a1-3)]Man(b1-4)GlcNAc(b1-4)GlcNAc
[34] = tested on: Neu5Ac(a2-6)GalNAc(b1-4)GlcNAc
[35] = tested on: Neu5Ac(a2-6)GlcNAc(b1-4)GlcNAc
[36] = tested on: Neu5Gc(a2-8)Neu5Gc(a2-3)Gal(b1-4)GlcNAc(b1-3)Gal(b1-4)GlcNAc

Langerin (Homo sapiens) (chain not printed)
glycan array binding signal (z-score) [1]: 0.725 | glycan array binding signal (z-score) [2]: -0.294 | glycan array binding signal (z-score) [3]: -0.235 | glycan array binding signal (z-score) [4]: 0.867 | glycan array binding signal (z-score) [5]: 0.136 | glycan array binding signal (z-score) [6]: -0.39 | glycan array binding signal (z-score) (Fuc(a1-2)[Gal(a1-3)]Gal): 7.09 | glycan array binding signal (z-score) [7]: -0.175 | glycan array binding signal (z-score) [8]: -0.378 | glycan array binding signal (z-score) [9]: -0.007 | glycan array binding signal (z-score) [10]: 0.531 | glycan array binding signal (z-score) [11]: 3.25 | glycan array binding signal (z-score) (Gal(a1-2)Gal): -0.385 | glycan array binding signal (z-score) [12]: -0.344 | glycan array binding signal (z-score) (Gal(a1-3)Gal): -0.382 | glycan array binding signal (z-score) [13]: 3.04 | glycan array binding signal (z-score) [14]: 0.416 | glycan array binding signal (z-score) [15]: -0.262 | glycan array binding signal (z-score) [16]: 0.311 | glycan array binding signal (z-score) [17]: 0.308 | glycan array binding signal (z-score) [18]: -0.082 | glycan array binding signal (z-score) [19]: -0.492 | glycan array binding signal (z-score) [20]: -0.143 | glycan array binding signal (z-score) (Gal3S(b1-3)GlcNAc): -0.42 | glycan array binding signal (z-score) (Gal3S(b1-4)Glc6S): -0.354 | glycan array binding signal (z-score) (Gal6S(b1-3)GlcNAc6S): 6.33 | glycan array binding signal (z-score) (Gal6S(b1-4)Glc6S): 3.27 | glycan array binding signal (z-score) (Gal6S(b1-4)GlcNAc6S): 11.9 | glycan array binding signal (z-score) (Gal6S(b1-4)GlcNAc): 3.5 | glycan array binding signal (z-score) (GalNAc(b1-3)GalNAc): 1.18 | glycan array binding signal (z-score) (Glc(b1-4)Glc): -0.356 | glycan array binding signal (z-score) [21]: -0.293 | glycan array binding signal (z-score) [22]: -0.347 | glycan array binding signal (z-score) [23]: 2.59 | glycan array binding signal (z-score) (GlcNAc(b1-3)Gal(b1-4)Glc): 1.15 | glycan array binding signal (z-score) [24]: 5.76 | glycan array binding signal (z-score) [25]: 1.19 | glycan array binding signal (z-score) [26]: 3.22 | glycan array binding signal (z-score) [27]: 4.6 | glycan array binding signal (z-score) [28]: 0.143 | glycan array binding signal (z-score) [29]: 0.011 | glycan array binding signal (z-score) [30]: -0.428 | glycan array binding signal (z-score) [31]: -0.353 | glycan array binding signal (z-score) [32]: -0.103 | glycan array binding signal (z-score) [33]: -0.23 | glycan array binding signal (z-score) [34]: -0.368 | glycan array binding signal (z-score) [35]: -0.38 | glycan array binding signal (z-score) [36]: -0.29
